The other results are listed elsewhere or left out. At the low end of the ranking the order means little. The protein was read in a cell extract, so binding may be indirect.

For the test, the target named is T1, HNF4alpha8 (COS-7 nuclear extract) (UniProt P41235-5).
T1 sequence: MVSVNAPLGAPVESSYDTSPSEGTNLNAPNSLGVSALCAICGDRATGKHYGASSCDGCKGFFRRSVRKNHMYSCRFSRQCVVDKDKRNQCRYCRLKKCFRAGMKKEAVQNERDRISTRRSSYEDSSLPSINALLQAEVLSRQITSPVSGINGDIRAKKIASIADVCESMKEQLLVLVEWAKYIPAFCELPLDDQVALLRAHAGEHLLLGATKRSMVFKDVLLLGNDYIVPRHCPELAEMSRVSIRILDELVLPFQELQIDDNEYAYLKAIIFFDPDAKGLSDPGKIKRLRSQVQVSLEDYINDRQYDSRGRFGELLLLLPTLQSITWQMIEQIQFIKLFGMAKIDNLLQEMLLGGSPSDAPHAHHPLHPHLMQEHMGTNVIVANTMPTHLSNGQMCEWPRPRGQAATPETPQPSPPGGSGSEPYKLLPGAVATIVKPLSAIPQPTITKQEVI
The test can be described thus: protein-binding microarray. The following applies: COS-7 nuclear extract on double-stranded Agilent 4x180k PBM; binding buffer, salt, pH and temperature not given; high values mean tight binding; double strand, one strand shown; sequences stand for … in …GCCTAGGGAGATTAGAGTATCGGTCGA
Consider TCTCCCAATCTCGAGATCATTTACATGTGT, for which the binding signal (log2 normalized intensity) was found to be 1.62.
In the case of TGTTCCACAGCAAGTAAATTCCGGGGCTGG it was -1.21; in that of TCATAATTTTGGACTTTGTGCAAATGGAAA, 4.69.
AGGCTTGCAATGCGGAATGACATTCAGCAA: the binding signal (log2 normalized intensity) is -1.32.
With AAGTTGGAATTTGGGTGATCCTGGTAGCAG, the binding signal (log2 normalized intensity) came to 0.514.
For TGGCTCTGAAAAACAAAATGCATTTCCTTA, the binding signal (log2 normalized intensity) was -1.31.
AGTGCACATTCCAGAGAAATAGTGAGACAG: the binding signal (log2 normalized intensity) was -1.46.
In the case of ACCCTGACCTGGCATATCTCTGTCCCTGAT it was 0.594.
Under TCTGATCTTTGACTTCTAGTTCTTATCTCA stands 1.18; under CACCTGAGTCCAGAGGTCAAGGCTGCAGCG, 3.88; under TTTGAAATAGTGACCTCTGCTGGCCAGTGG, 2.44.
In the case of AACTGTAGTGCATAGTGGGTTTCGGTGTCA it was 1.15.
Consider AAATAATTACTTCTTGAAGCCACTTGCTTA, for which the binding signal (log2 normalized intensity) is -1.03.
As for AAGAGACTTTGCCCTTTTTTTCTCTCCCCT, the binding signal (log2 normalized intensity) was determined as 3.92.
On to GGGTAAAATGAGAATGAGACCTGCTAGGCT, for which the binding signal (log2 normalized intensity) is -1.35.
Under GCCCCAGTAAAACTGGAAAATCAAAGACTC stands -1.23; under TTGTATTTTGCCAAAGAGGTCTTATGCTCA, 0.483; under AATCCTTAAGCAGCAGATAAGGCTAATCCT, -1.21.
On to TCACTTGTTTATCTGCTGCCCTTCCCTCCA, for which the binding signal (log2 normalized intensity) came to 3.03.
Under AAAGATCACACAAATGGATCTTTCTTCAAA stands -1.32.
With TGCACTTTGACCGCTCATTTGATCCTCACA, the binding signal (log2 normalized intensity) turned out to be 4.61.
Consider TTGACCTTTAGAAGGTTATTAGTGATAAGC, for which the binding signal (log2 normalized intensity) came to 3.79.
On to AAGGTCACAGCACTGTTTATTTTGTGTGAT, for which the binding signal (log2 normalized intensity) turned out to be 1.64.
For CCATTTATAAGAAACTGCTCCTGCTTGGGA, the binding signal (log2 normalized intensity) is -0.881.
GGCTGATGACCTTTGACTGAGATGGGAGCA: the binding signal (log2 normalized intensity) worked out at 4.58.
Under CCAAGGAAGGGCAAACTCTAGCTGTCCTCC stands -0.916; under TCGTCCCTTCCCTCTGTCTTCAAAACCACA, 0.59.
Under TCCTGGAACTCTGACCTTTGCCCCCAGCCT stands 10.1.
Under CACCTACTTGGGATGCTGAGGTGGGAGGAT stands -0.834; under CCACTAAGAAGCCCAAGGTTAAAATCACAA, -1.29; under AACTGATTACTGCACCCCCTTCCCACCTGC, 5.14.
Turning to CCTTGACCCTTCCTCCCATTTGCTGCTCTA, the binding signal (log2 normalized intensity) is 1.81.
For AGCCGGCTCAAAATAGGCAAGACTGCCACC, the binding signal (log2 normalized intensity) was -1.28.
Under CTTGCAGGGGGCCTCCTGCCCCAGGAGCAG stands -1.42.
Under GGTCAAGAGGGCCTCTGCTTGTCTTGGTTG stands 0.598.
Under TTCCCTGCAGAAAAGGCCCCAGGGATTGCA stands 1.45; under CTCACTCTAAAGGAAGGGATTATAAAGCTT, -1.42; under AAGGTGAAGGAGAATATTAGATGATAAGGG, -1.32.
With GGCCAGTTTCTCCACAGCCTCACCAACAGG, the binding signal (log2 normalized intensity) is -0.9.
As for CTTTATCTAGATAAGTTTATTTACTTATGT, the binding signal (log2 normalized intensity) worked out at 2.32.
Under CACATTCCAGAACCAAGATTTACATCCTAT stands -1.23; under ATTTTCTCATCCCAGGGATAATGATAAAGA, -0.501; under TTCCCTACCCCCTGGGAGTAACCTGCTTGT, 2.25.
Under AAGGTAGATACTATAATTAGAATCTGCAGG stands -1.17; under AGTCACACACACCTGTGTCCCCCAGGTCCA, 3.56; under CTCTGCAGGAGGACTGGATCAATGGATCCA, -1.27.
Under TTTCTGTATCTAATCTCAGATATGCTAATT stands -0.126.
GGCCCCAGCAGGCCAGGCCAAATCAGAACT: the binding signal (log2 normalized intensity) is -1.2.
As for CCCGGCCAGCAGATGAGCCTGTTGGGAGCC, the binding signal (log2 normalized intensity) was -1.38.
In the case of ATCTTCCAGGCCTCCAGCTCTTTTGAACCC it was 4.31; in that of TACCCGGCAAAGAATTGTGAGTCCAGTTGA, 1.55; in that of GAACGGAATGTGTGATAAGGAACTGTGTAA, 0.721.
In the case of TTTAATTATCATCTCTGTGTATAAGACTCT it was 0.682; in that of ATCAGCAAGGGCATTTGCGTAGGCTGTCAG, 0.124.
ATAGGGTTCAAACTCCTATGTGAATCTAAT: the binding signal (log2 normalized intensity) stood at 1.78.
Turning to GGATGGGGAGGGGGCAGGTAAGTACCAATA, the binding signal (log2 normalized intensity) is -0.99.
Under CACCTCGTCCAGGTGTCTTCAGGCTGGGGC stands 0.0763; under GCAACCTTTGCTCTCCCTCCTCTCTGAGCA, 2.28; under TGAATCTAATGCCACCATTGATCTAACAGG, -1.28.
In the case of AAGGAAATGGACAACGGAAAGACAGAGGTG it was -1.31.
In the case of TCTCTGGCTGGTGGGCAAGTTATCTCGGGG, the binding signal (log2 normalized intensity) is -0.0511.
Consider AGCCTCTTTATCTCTCTCTCTTTCTTCCCC, for which the binding signal (log2 normalized intensity) stood at 2.62.
Under TTGACCTCTGCTAGGTTTGGGTAAGACTTA stands 3.09; under AAAAATTGCCCCCGGGCACAGGGTTGAGTG, 3.33.
Consider GCCTCCTGCTCTGGGCTTTCTCTGCCTCCA, for which the binding signal (log2 normalized intensity) is -1.21.
Take CTATGCAAACAGCGCTTATCTGGAAACTAT: the binding signal (log2 normalized intensity) is -1.46.
In the case of CGCTGCGCCACAGCACCACCTGCTGGTCAG it was -1.22.
In the case of ACCTCCCCTTTGTTTAACTTACTATCTGAG it was 0.861.
In the case of GTTCTAGTAAGGCCTTCAAATGATTGGATG it was 0.45; in that of AGGCCAATTACTTACATGGGTTAGGAGGAT, 0.128; in that of ACACTATCAGCTACTTCGGGACAAGAGGAA, -0.89.
Consider GTCTACAGGTCAGACCTGTTTCAAAACTAC, for which the binding signal (log2 normalized intensity) is -0.457.
For the sequence CTTGTCTTATCAGCAGGGTCTTTTTGACCT, the binding signal (log2 normalized intensity) was 4.79.

The values are drawn from paper PMC10726135.
